Measured values taken from paper PMC4336329 (PLoS ONE, 2015).
Screen size: about 310,000 compounds; about 2,200 (0.71%) showed an effect of 50% or more. Effects have a minus sign here. This is one part of the list.

molecular target: human ether-à-go-go-related gene (hERG) potassium channel (human, UniProt Q12809); assay: primary screen, population patch clamp on CHO cells stably expressing hERG
Sequence (Q12809 whole entry, looked up): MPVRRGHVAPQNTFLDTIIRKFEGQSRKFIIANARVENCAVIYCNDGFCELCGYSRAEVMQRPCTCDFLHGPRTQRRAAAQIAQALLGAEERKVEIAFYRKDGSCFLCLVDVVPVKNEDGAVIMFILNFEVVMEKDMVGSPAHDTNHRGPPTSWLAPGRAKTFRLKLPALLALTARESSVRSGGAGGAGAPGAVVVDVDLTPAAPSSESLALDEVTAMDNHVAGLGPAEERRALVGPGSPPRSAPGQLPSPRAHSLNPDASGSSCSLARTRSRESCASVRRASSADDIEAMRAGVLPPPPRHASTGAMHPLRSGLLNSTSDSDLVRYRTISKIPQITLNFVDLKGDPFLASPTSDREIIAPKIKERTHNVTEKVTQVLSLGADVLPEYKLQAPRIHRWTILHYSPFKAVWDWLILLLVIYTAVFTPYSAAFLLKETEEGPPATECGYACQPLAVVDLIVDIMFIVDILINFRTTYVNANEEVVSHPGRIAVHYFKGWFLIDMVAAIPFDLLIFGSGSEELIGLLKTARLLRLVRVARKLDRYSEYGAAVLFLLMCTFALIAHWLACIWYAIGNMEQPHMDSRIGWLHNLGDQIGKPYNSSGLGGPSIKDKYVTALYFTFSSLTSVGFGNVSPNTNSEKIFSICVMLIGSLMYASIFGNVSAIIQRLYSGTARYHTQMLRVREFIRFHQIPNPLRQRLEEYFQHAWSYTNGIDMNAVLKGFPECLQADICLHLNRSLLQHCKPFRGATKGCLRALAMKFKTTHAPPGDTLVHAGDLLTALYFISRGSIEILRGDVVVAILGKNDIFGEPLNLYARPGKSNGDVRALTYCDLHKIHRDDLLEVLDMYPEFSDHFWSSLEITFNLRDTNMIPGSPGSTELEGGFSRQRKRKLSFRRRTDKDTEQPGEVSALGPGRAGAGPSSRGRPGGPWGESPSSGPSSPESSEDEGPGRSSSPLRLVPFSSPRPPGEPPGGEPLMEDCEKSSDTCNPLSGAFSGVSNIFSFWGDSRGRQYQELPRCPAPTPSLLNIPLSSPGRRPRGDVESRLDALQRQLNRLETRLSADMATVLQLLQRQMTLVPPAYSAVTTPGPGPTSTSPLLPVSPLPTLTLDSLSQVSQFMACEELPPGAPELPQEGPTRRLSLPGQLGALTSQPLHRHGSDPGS

SMILES | hERG current change (%, negative = inhibition) at 1uM
COCCOC(=O)c1[nH]c2c(c1C)C(=O)C(C(=O)OC)C(C)C2 (stereo not shown) | 6.73%
O=C(CSc1nnc(NC(=O)c2ccco2)s1)Nc1ccc2c(c1)OCCO2 | 11.4%
CSc1ncccc1C(=O)OCC(=O)c1cc(C)n(CC2CCCO2)c1C (stereo not shown) | 6.63%
CC(=O)Oc1ccc(/C=N/NS(=O)(=O)c2ccc(C)cc2)c(OC(C)=O)c1 | 9.55%
O=C(c1ccc(Cl)c([N+](=O)[O-])c1)N(Cc1ccc(Cl)cc1)C1CCS(=O)(=O)C1 (stereo not shown) | 1.54%
CCn1c(=O)ccc2cc([N+](=O)[O-])ccc21 | 4.99%
O=C(O)CN1C(=O)C2C3CC(C2C1=O)C1C(c2ccccc2)c2sc(=O)[nH]c2SC31 (stereo not shown) | 14%
CCOc1ccc(C2C(C(=O)Nc3ccc(F)cc3)=C(C)Nc3nc(CCCO)nn32)cc1 (stereo not shown) | 2.86%
Cc1ccc(S(=O)(=O)CCc2ccncc2)cc1 | -3.31%
O=C(c1cccs1)N1CCN(c2cccc(Cl)c2)CC1 | 11.4%
CCOc1ncccc1C(=O)NCc1ccccc1F | -3.24%
C=CCc1ccc(OCC(O)CN2CCN(c3ccccc3)CC2)c(OC)c1.Cl (stereo not shown) | -33.7%
O=C(/C=C/c1c(Cl)cccc1Cl)N1CCOCC1 | 27.1%
Cn1cccc1C(=O)OCC(=O)N1CC(=O)Nc2ccccc21 | 12.9%
Cc1ccc(CNC(=O)CCCC(=O)c2ccccc2)cc1 | 2.33%
CNCC(O)c1cc(F)c(OCc2ccccc2)c(OCc2ccccc2)c1F (stereo not shown) | 14.7%
Cc1ccc(C(=O)Oc2coc(CSc3nnc(NC(=O)c4cccs4)s3)cc2=O)cc1C | -8.71%
Cn1cc(S(=O)(=O)N2CCN(c3ccccc3)CC2)c(=O)n(C)c1=O | 8.79%
Cc1cc(C)nc(NS(=O)(=O)c2ccc(NC(=O)C3(c4ccccc4)CCCC3)cc2)n1 | 3.51%
Cc1cc(NC(=O)CSc2nnc(C3CC3)n2C)no1 | 14.8%
O=C(COC(=O)[C@H](Cc1ccccc1)N1C(=O)c2ccccc2C1=O)Nc1ccc2c(c1)OCO2 | 1.25%
Cn1c(Cc2cccs2)n[nH]c1=S | 2.77%

SMILES | hERG current change (%, negative = inhibition) at 1uM
C/C(CCc1ccc2c(c1)OCO2)=N\NC(=O)c1ccc(C)cc1C | 13.3%
CCOc1cc(/C=N\NC(=O)c2ccc(NC(=O)C(C)(C)C)cc2)ccc1OC(=O)c1ccc(OC)cc1 | 18.1%
C/C(=N\NS(=O)(=O)c1ccc(C)c([N+](=O)[O-])c1)c1cc2ccccc2o1 | -1%
COc1ccc(/C=C/C(=O)Nc2ccc(OC)cc2[N+](=O)[O-])cc1 | -0.381%
C=CCNC(=O)C1CC(=O)N(c2ccc(C)cc2)C1 (stereo not shown) | 1.4%
CC(=O)O[C@H]1C[C@@]2(C)[C@@H](C[C@@H](O)[C@H]3[C@@]4(C)CC[C@@H](O)[C@@H](C)C4CC[C@@]32C)/C1=C(\CCC=C(C)C)C(=O)[O-].[Na+] (stereo partly shown) | 1.43%
COc1ccc(Cl)cc1C(=O)Nc1ccc(S(N)(=O)=O)cc1 | 7.83%
CSCCC(NC(=O)COc1ccccc1)C(=O)OC(C)C(=O)Nc1ccccc1C (stereo not shown) | 6.5%
Clc1ccc(CN2CCCCCCC2)cc1 | -1.46%
CN(C)CC/C=C1/c2ccc(F)cc2Sc2ccc(Cl)cc21.Cl | 9.94%
Cc1ccc(C(=O)N2CCCC(C(=O)c3ccc(Oc4ccccc4)cc3)C2)cn1 (stereo not shown) | 3.62%
O=C1Nc2ccc(F)cc2C12Nc1ccccc1-c1nnc(SCc3ccccc3)nc1O2 (stereo not shown) | 2.79%
COc1ccc(CCNC(=O)Cc2cc(OC)c(OC)cc2[N+](=O)[O-])cc1OC | 12.2%
CC(=O)Nc1ccc(NS(=O)(=O)c2c(Cl)cccc2Cl)cc1 | 7.47%
CCOc1ccc(C(CC(=O)O)NS(=O)(=O)c2ccc(C)cc2)cc1OC (stereo not shown) | 9.56%
CC1C/C(=N/NC(=O)c2ccc(CSc3nc4ccccc4[nH]3)cc2)CC(C)(C)C1 (stereo not shown) | 6.55%
CC(C)SCCCCOc1ccc2ccccc2c1 | 1.42%
Cn1cccc1C(=O)NNC(=O)COc1ccccc1Cl | 3.95%
Oc1ccc(/C=N/NC2=NCCCCC2)cc1 | 2.72%
C#CCOCCOCCOCCNc1nc(N2CCN(C(=O)Cn3cc(CCC[NH+]=C(N)N)nn3)CC2)nc(N2CCN(C(=O)[C@H]([C@@H](C)CC)n3cc(CCCC[NH3+])nn3)CC2)n1.[Cl-] | 3.44%
Cl.O=C(O)c1ccc(CNCc2ccc(F)cc2)cc1 | 15.3%
ClC1(Cl)CC1Cn1cnc2ccccc21 (stereo not shown) | 14%

SMILES | hERG current change (%, negative = inhibition) at 1uM
O=C(/C=C/c1ccc2ccccc2n1)c1cc(Cl)ccc1O | 16%
COc1ccccc1CNC(=O)CN1C(=O)NC2(CCCC2)C1=O | 10.2%
COc1cc(NC(=S)NC(=O)c2cccs2)ccc1NC(=O)C(C)C | 5.78%
CCOc1ccc(CNCCNC(=O)c2nonc2N)cc1.Cl | 2.76%
CNC(=O)Oc1ccc2ncccc2c1 | -1.52%
O=C(c1ccccc1C(=O)N1CCN(c2ccccc2)CC1)N1CCN(c2ccccc2)CC1 | -4.1%
Nc1nc(NC(=O)Cc2ccccc2)nn1-c1ccccc1 | 7.38%
CCCCC(=O)Nc1ccc2c(c1)nc(CCN1CCN(C)CC1)n2C | 24.7%
O=C(COC(=O)Cc1c(Cl)cccc1Cl)NCCC1=CCCCC1 | -5.08%
Nc1nc(C23CC4CC(CC(Cl)(C4)C2)C3)cs1 | 12.2%
Cn1c(N2CCCC2)nc2c1c(=O)n(Cc1ccc(Cl)cc1)c(=O)n2C | 9.35%
O=C(O)CC/C(=N/NC(=O)c1ccc(-c2ccccc2)cc1)c1ccccc1 | 2.78%
CN(C)C(=S)c1ccc2ccccc2n1 | 14.9%
CCC(CO)Nc1ncnc2c1cnn2-c1ccc(OC)cc1 (stereo not shown) | 2.03%
Cc1ccc(S(=O)(=O)Nc2n[nH]nc2C(=O)NC2CCCCC2)cc1 | 14.8%
Cc1ccc(OCC(=O)NCC(=O)Nc2ccc(F)c(F)c2F)c([N+](=O)[O-])n1 | -0.24%
O=C(COC(=O)c1ccc[nH]c1=O)NC1CCCCCC1 | 7.37%
Cc1cccc(-c2nsc(SCC(=O)c3ccc(Cl)cc3)n2)c1 | 3.86%
Cc1cccc(N2CCN(C(=O)CSc3nnnn3C3CC3)CC2)c1C | 4.46%
O=C(/C=C/c1ccc(Cl)cc1Cl)c1ccc[nH]1 | 14.6%
O=S(=O)(NCc1ccccc1)c1cccc(S(=O)(=O)N2CCOCC2)c1 | -10.5%
COc1ccc(Cn2c(N)c(C#N)c3nc4ccccc4nc32)cc1 | 12.9%

SMILES | hERG current change (%, negative = inhibition) at 1uM
Cn1c2ccccc2c2ncn(CCN3CCOCC3)c(=O)c21 | 1.96%
COc1ccc([C@H]2CC(=O)C=C(c3ccc(SC)cc3)C2)cc1OC | 16.7%
O=c1nc(-c2ccccc2)c(-c2ccccc2)n[nH]1 | 13.4%
COc1ccc(Cl)cc1S(=O)(=O)NC(C)C(=O)NCc1ccncc1 (stereo not shown) | 15.5%
CC1CCN(c2ccccc2NC(=O)c2cc3ccccc3o2)CC1 | 27.4%
COc1ccccc1NS(=O)(=O)c1cccc(C(=O)NCC(c2ccccc2OC)N2CCCC2)c1 (stereo not shown) | -0.407%
Cc1ccccc1-c1noc(CCC(=O)NCCc2ccccc2)n1 | 10.4%
O=C(Nc1ccc2c(c1)OCO2)OCc1ccccc1 | -3.43%
COCCN1Cc2cccc(C(=O)Nc3c(C)cc(C)cc3C)c2C1=O | 5.9%
Cc1ccc(O)c(NC(=O)CSc2ccc(Cl)cc2)c1 | 13.4%
CCn1c2ccccc2c2cc(NC(=O)c3cccc([N+](=O)[O-])c3)ccc21 | 12.7%
COc1cccc(/C(O)=C2\C(=O)C(=O)N(c3ccccn3)C2c2cccc(OC)c2OC)c1 (stereo not shown) | 10.7%
CCNc1nc(NCC)n2c(SCC(=O)Nc3ccccc3)nnc2n1 | 5.22%
CCc1c(C)nc2ncnn2c1N1CCCC(C(=O)NCCc2ccccc2)C1 (stereo not shown) | -5.89%
COCCNc1nc2nonc2nc1N1CCC(N(C)C)C1 (stereo not shown) | 10.8%
CCC1COCCS(=O)(=O)N1Cc1cccc(Cl)c1 (stereo not shown) | -0.974%
COc1ccc(S(=O)(=O)N2CCCCC2)cc1NC(=O)C1CCCC1 | -1.49%
CC1CC(C)(C)N(C(=O)NC2CCCCC2)c2ccccc21 (stereo not shown) | 17.6%
Cc1nn(Cc2ccc(Cl)c(Cl)c2)c(C)c1NC(=O)c1sc2ccccc2c1Cl | 16.2%
COc1ccc(-c2nc(NC(=O)CSCCO)sc2C)cc1 | 5.01%
COc1ccccc1CNC(=O)c1cccc(S(=O)(=O)N2CCN(c3ccc(F)cc3)CC2)c1 | 4.8%
C/C(=N\NC(=O)c1ccc(NS(=O)(=O)c2cccs2)cc1)c1ccc(O)cc1O | 8.53%
